Source: paper PMC3805550, “A Molecular Evolution Approach to Study the Roles of Tropomyosin in Fission Yeast” (PLoS ONE, 2013)

Target: F-actin from chicken pectoral (skeletal) muscle (chicken, UniProt P68139)
Test: co-sedimentation; 5 uM F-actin with 0.1-6 uM AS-Cdc8p, 20 mM MOPS pH 7.0, 150 mM NaCl, 2 mM MgCl2, 20 C, 60,000 rpm 30 min; pellets and supernatants on SDS-PAGE, densitometry; Hill equation fit, apparent constant (Kapp)
Settings: both partners purified

B1: AS-Cdc8p D16A.K30A (natural protein)
chain: not shown
notes: AlaSer extension; primer introduces Met-Ala-Ser at the 5' end, the Met is cleaved after expression in E. coli; Cdc8p, tropomyosin of Schizosaccharomyces pombe, 161 residues; subcloned with primers at the 5' end and the 3' end of cdc8; measured mass 19020 (expected 19021); residue numbers count on Cdc8p without the AS extension; also called AS-16.30; AS-Cdc8p-16.30; source: E. coli BL21(DE3) …
B1 showed a Ka of 2.6e+06 M⁻¹.
